This passage reports binding results from publication PMC3594291.

The chains behind the UniProt entries cited, without tags or fusion partners.
UniProt O14733: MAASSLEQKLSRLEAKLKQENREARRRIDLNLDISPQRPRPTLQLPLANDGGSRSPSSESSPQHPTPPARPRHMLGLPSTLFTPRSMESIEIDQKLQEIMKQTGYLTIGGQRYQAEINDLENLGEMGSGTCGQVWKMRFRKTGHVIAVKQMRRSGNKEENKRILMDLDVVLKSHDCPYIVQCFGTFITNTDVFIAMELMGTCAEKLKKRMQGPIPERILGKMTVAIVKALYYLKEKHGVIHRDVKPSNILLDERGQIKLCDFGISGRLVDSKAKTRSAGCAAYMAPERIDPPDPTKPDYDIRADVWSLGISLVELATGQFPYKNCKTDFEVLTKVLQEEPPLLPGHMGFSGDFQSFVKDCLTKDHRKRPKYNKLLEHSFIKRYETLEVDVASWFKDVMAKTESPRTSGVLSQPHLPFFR
UniProt Q9Y6R4: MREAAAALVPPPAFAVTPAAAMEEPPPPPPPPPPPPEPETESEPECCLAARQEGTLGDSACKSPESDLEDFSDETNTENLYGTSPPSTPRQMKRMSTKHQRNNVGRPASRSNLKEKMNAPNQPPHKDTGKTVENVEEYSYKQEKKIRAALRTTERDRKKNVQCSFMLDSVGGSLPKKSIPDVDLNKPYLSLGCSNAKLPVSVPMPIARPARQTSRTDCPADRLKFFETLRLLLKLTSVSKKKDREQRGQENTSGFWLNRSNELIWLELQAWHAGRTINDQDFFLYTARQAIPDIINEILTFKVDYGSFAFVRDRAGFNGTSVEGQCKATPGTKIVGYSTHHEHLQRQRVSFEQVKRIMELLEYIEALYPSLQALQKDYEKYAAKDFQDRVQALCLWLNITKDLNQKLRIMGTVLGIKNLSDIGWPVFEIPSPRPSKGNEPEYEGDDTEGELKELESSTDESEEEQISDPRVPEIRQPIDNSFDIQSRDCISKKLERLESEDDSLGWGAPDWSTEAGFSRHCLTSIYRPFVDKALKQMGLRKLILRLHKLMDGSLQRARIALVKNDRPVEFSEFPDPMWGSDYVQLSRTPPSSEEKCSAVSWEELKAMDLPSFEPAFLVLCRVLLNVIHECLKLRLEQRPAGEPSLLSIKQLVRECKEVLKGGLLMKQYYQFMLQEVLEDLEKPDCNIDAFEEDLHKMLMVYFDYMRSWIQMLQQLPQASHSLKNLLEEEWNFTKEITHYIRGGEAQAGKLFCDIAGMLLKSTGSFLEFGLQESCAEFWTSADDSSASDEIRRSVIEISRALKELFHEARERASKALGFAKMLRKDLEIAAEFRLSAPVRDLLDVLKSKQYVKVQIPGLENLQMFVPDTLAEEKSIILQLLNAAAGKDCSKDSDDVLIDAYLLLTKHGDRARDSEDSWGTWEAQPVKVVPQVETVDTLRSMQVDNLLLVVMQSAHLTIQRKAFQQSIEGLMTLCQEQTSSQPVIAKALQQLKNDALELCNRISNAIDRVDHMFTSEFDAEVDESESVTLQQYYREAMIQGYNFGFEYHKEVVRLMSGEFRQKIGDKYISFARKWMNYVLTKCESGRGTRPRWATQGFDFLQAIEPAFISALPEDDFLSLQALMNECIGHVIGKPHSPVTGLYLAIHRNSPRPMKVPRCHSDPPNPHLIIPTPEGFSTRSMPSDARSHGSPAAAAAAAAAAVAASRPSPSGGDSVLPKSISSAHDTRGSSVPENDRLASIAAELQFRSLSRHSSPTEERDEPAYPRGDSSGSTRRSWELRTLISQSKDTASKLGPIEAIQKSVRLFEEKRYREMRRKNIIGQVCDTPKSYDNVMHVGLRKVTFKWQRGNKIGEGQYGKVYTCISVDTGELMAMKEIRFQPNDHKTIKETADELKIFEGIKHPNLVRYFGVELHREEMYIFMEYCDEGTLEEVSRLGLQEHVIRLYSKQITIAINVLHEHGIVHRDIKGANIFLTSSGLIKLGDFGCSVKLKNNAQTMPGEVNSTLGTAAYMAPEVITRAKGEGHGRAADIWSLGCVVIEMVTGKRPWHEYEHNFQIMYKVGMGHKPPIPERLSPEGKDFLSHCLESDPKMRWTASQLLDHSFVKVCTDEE

These are yes or no findings as the source states them, for the method shown. Binding seen in cells or lysates may run through a third protein. Some entries that bind do so weakly or less than the wild type. Tags and fused reporters may be left off the sequences shown.

To fix the notation:
B1: MKK6 (enzyme, UniProt P52564 1-334)
chain: MSQSKGKKRNPGLKIPKEAFEQPQTSSTPPRDLDSKACISIGNQNFEVKADDLEPIMELGRGAYGVVEKMRHVPSGQIMAVKRIRATVNSQEQKRLLMDLDISMRTVDCPFTVTFYGALFREGDVWICMELMDTSLDKFYKQVIDKGQTIPEDILGKIAVSIVKALEHLHSKLSVIHRDVKPSNVLINALGQVKMCDFGISGYLVDSVAKTIDAGCKPYMAPERINPELNQKGYSVKSDIWSLGITMIELAILRFPYDSWGTPFQQLKQVVEEPSPQLPADKFSAEFVDFTSQCLKKNSKERPTYPELMQHPFFTLHESKGTDVASFVKLILGD
B2: MKK3 (enzyme, UniProt P46734 1-347)
chain: MESPASSQPASMPQSKGKSKRKKDLRISCMSKPPAPNPTPPRNLDSRTFITIGDRNFEVEADDLVTISELGRGAYGVVEKVRHAQSGTIMAVKRIRATVNSQEQKRLLMDLDINMRTVDCFYTVTFYGALFREGDVWICMELMDTSLDKFYRKVLDKNMTIPEDILGEIAVSIVRALEHLHSKLSVIHRDVKPSNVLINKEGHVKMCDFGISGYLVDSVAKTMDAGCKPYMAPERINPELNQKGYNVKSDVWSLGITMIEMAILRFPYESWGTPFQQLKQVVEEPSPQLPADRFSPEFVDFTAQCLRKNPAERMSYLELMEHPFFTLHKTKKTDIAAFVKEILGEDS
B3: MKK4 (enzyme, UniProt P45985 1-399)
chain: MAAPSPSGGGGSGGGSGSGTPGPVGSPAPGHPAVSSMQGKRKALKLNFANPPFKSTARFTLNPNPTGVQNPHIERLRTHSIESSGKLKISPEQHWDFTAEDLKDLGEIGRGAYGSVNKMVHKPSGQIMAVKRIRSTVDEKEQKQLLMDLDVVMRSSDCPYIVQFYGALFREGDCWICMELMSTSFDKFYKYVYSVLDDVIPEEILGKITLATVKALNHLKENLKIIHRDIKPSNILLDRSGNIKLCDFGISGQLVDSIAKTRDAGCRPYMAPERIDPSASRQGYDVRSDVWSLGITLYELATGRFPYPKWNSVFDQLTQVVKGDPPQLSNSEEREFSPSFINFVNLCLTKDESKRPKYKELLKHPFILMYEERAVEVACYVCKILDQMPATPSSPMYVD

For the assay, the target named is T1, HA-GADD45α (UniProt P24522).
T1 sequence: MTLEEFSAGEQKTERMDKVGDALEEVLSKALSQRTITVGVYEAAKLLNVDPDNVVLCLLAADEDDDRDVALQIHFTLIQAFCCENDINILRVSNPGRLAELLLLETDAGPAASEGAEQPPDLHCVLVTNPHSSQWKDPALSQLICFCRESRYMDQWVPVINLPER
Nature of the assay: co-IP; anti-HA antibody with protein A/G plus agarose, overnight at 4°C, on 2 mg lysate of HCT116 (HA-GADD45α) cells treated with NiCl2 (1 mM) for 3 hrs; IP buffer 25 mM Tris-HCl pH 7.5, 1 mM DTT, 30 mM MgCl2, 40 mM NaCl, 0.5% NP-40; western blot of the precipitate.
“MKK7 (from UniProt O14733 1-419) (enzyme)”: the binding result is on record as “no binding”. The entry for “MTK1/MEKK4 (from UniProt Q9Y6R4 1-1608) (enzyme)” is “binds”; for B1 it is “no binding”; for B2 it is “no binding”. The value for B3 was “no binding”.
